In PubChem BioAssay AID686970 (National Center for Advancing Translational Sciences (NCATS), 2013):
The whole screen tested about 360,000 compounds, of which about 6,000 (1.7%) were called active. Inconclusive means that the source gave no clear call. Such entries were picked first, then a sample of the others. Calls come from the whole dose curve; as a rule, active = well fitted cell-killing curve with a large enough effect; inconclusive = small, poorly fitted or top-dose-only effect, or effect the other way; inactive = flat fitted curve, though single readings scatter. No potency is given beside an inconclusive call; the fits are too rough.

Experiment: qHTS for induction of synthetic lethality in tumor cells producing 2HG: qHTS for the HT-1080-NT fibrosarcoma cell line;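 note: NT is the 2HG producing partner of a matched IDH1 knockdown line; nearly all actives have a fitted effect of over 55% in size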;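 for activity, negative = less viability: 0% = DMSO-treated cells and -100% = media-only wells without cells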
Conditions: HT-1080-NT fibrosarcoma viability, CellTiter-Glo ATP luminescence, 48 h; activity, negative = less viability: at 46.1 µM (top of the series) unless noted
Outline: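 Viability by CellTiter-Glo luminescence after 48 h compound exposure at 37C of HT-1080-NT cells (750/well, RPMI, 5% FBS). % activity scaled between DMSO wells and medium-only wells, then curve-fitted and categorized by curve class.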
Potency is the fitted concentration of half-maximal effect; tags give direction and shape of the fitted curve.

SMILES | Potency | activity, negative = less viability
O=C(OCCC12CC3CC(CC(C3)C1)C2)c1ccc(NCc2cc(O)ccc2O)cc1 | active: 6.51 µM | 
COc1cccc(Nc2nc(C(C)N)cs2)n1 (configuration not stated) | inconclusive [cytotoxic, single point] | 
COc1ccc(CN(C)c2ncnc3sccc23)c(OC)c1OC | inconclusive [cytotoxic, full curve] | 
O=c1cc(N2CCCCC2)c(-c2ccccc2)nn1Cc1ccc(Cl)cc1Cl | inconclusive [cytotoxic, single point] | 
O=C(Nc1cccc(-c2cccc(F)c2)c1)C1CCN(Cc2ccco2)CC1 | inconclusive [cytotoxic, single point] | 
Cn1cnc(C(=O)N2CCc3ccccc3C2)c1C(=O)N1CCc2ccccc2C1 | inconclusive [rising, single point] | 
CCOC(=O)C1=C(C)Nc2ccccc2N/C1=N\S(=O)(=O)c1ccccc1 |  | inactive: -16%
COc1ccc(-c2sc(Nc3ccccc3)n[n+]2-c2ccc(F)cc2)c(C)c1C | inconclusive [cytotoxic, single point] | 
O=S(=O)(c1ccccc1)N(c1ccccc1)S(=O)(=O)c1ccccc1 |  | inactive: -2%
CCCOc1ccccc1C1CC(=O)Nc2cc3c(cc21)OCCO3 (configuration not stated) | active: 1.3 µM | 
Cc1ccccc1C(=O)NNC(=S)NC(=O)c1ccc(Cl)cc1Cl | inconclusive [cytotoxic, single point] | 
CC(=O)Nc1nonc1-c1nc2ccccc2n1Cc1ccccc1 | active: 16.4 µM | 
COc1ccc(OCCSc2ncn[nH]2)cc1 |  | inactive: 0.188%
CCC[C@@H]1C[C@@H](C(=O)N[C@H]([C@@H](C)O)[C@H]2O[C@H](SC)[C@H](O)[C@@H](O)C2O)N(C)C1 (some centres not stated) |  | inconclusive: 40.1%
COc1ccc(S(=O)(=O)N(CC(=O)N2CCCC2)Cc2ccccc2)cc1 |  | inactive: 18%
Clc1ccc(C2=C3CCCCn4c(-c5ccccc5)c[n+](c43)C2)cc1 | inconclusive [cytotoxic, single point] | 
COc1cccc2c3c(c(C)nc12)CCN3c1ccccc1 | inconclusive [cytotoxic, partial curve] | 
Cc1ccc(NC(=O)CN(C)CC(=O)Nc2cccc(F)c2)cc1S(=O)(=O)N1CCCCCC1 | inconclusive [cytotoxic, single point] | 
Cc1cc(C(=O)CSc2ncccn2)c(C)n1-c1cccc(F)c1 |  | inactive: 11%
O=C1c2ccccc2C(=O)c2c1ccc1c(=O)n(-c3ccccc3)[nH]c21 |  | inactive: 8.11%
Cc1ccc(S(=O)(=O)N2CCOCC2)cc1C(=O)N(C)CCOc1ccc(Cl)cc1 | inconclusive [cytotoxic, partial curve] | 
COC(=O)C1=CN(c2ccccc2OC)C(N)=C(C#N)C1c1cccc([N+](=O)[O-])c1 (configuration not stated) | active: 2.31 µM | 
CCCS(=O)(=O)NC(=O)C1(C)CCN(C(=O)c2cc(C)on2)C1 (configuration not stated) |  | inactive: 1.9%
O=C(Cn1cnc2c(cnn2-c2ccc(F)cc2)c1=O)NCc1ccco1 | inconclusive [cytotoxic, partial curve] | 

SMILES | Potency | activity, negative = less viability
CCOC(=O)C1=C(N)N2C(=O)C(C)SC2=C(C(=O)OC)C1c1ccccc1OC (configuration not stated) |  | inactive: 10.2%
O=S(=O)(c1ccc(Cl)c(Cl)c1)c1snnc1-c1ccccc1 | active: 16.4 µM | 
COc1ccc(Cl)cc1NC(=O)Nc1ccc(C(=O)N2CCCC2)cc1 | inconclusive [cytotoxic, single point] | 
CCc1ccc(S(=O)(=O)c2cn(C)c3cc(OC)c(OC)cc3c2=O)cc1 |  | inactive: -2.35%
Cc1cc(N(C)C)ccc1N=Nc1ccc2ncccc2c1 |  | inactive: -0.746%
O=C(CCn1cnc(-c2ccccc2)c1-c1ccccc1)N/N=C/c1ccccc1O | active: 13 µM | 
C[C@H]1COc2cccc(N3CCC[C@@H]3CO)c2S(=O)(=O)N1 | inconclusive [rising, partial curve] | 
COc1ccc(-c2cc(C(=O)N3CCN(c4ccccc4)CC3)c3ccccc3n2)cc1 | inconclusive [cytotoxic, full curve] | 
Cc1noc(C)c1C(=O)OCC(=O)NC(c1ccccc1)c1ccccc1 | inconclusive [cytotoxic, full curve] | 
O=C(Nc1cccc(C(F)(F)F)c1)c1ccc(N2CCNCC2)c([N+](=O)[O-])c1 | active: 16.4 µM | 
CCN(CCNCC(O)COc1ccccc1C(C)C)c1cccc(C)c1 (configuration not stated) | active: 20.6 µM | 
CCOC(=O)C1(Cc2ccccc2C(F)(F)F)CCN(Cc2ccc(COC)o2)CC1 | inconclusive [cytotoxic, single point] | 
C=C[C@@H]1c2ccccc2N(S(=O)(=O)c2ccc(C)cc2)[C@H](c2ccccc2)C1(C#N)C#N |  | inactive: 7.97%
CCc1nc(Nc2cccc(O)c2)c2oc3ccccc3c2n1 | inconclusive [cytotoxic, single point] | 
CCOC(=O)CN(C)C(=O)C1CCCN1C(=O)OC(C)(C)C (configuration not stated) |  | inactive: 0.96%
Oc1cccc(/C=N/N2CCN(C3c4ccccc4-c4ccccc43)CC2)c1 | inconclusive [cytotoxic, single point] | 
COc1ccc(-n2nnnc2C(c2cccc(OC)c2OC)N2CCN(C/C=C/c3ccccc3)CC2)cc1 (configuration not stated) | inconclusive [cytotoxic, single point] | 
Cc1ccc(C2(c3ccc(C)cc3)NC(=O)N(Cc3c(C)noc3C)C2=O)cc1 | inconclusive [cytotoxic, single point] | 
CC(C)c1ccc(NC(=S)NCc2cccs2)cc1 | active: 11.2 µM | 
Nc1ccn([C@@H]2O[C@H](CNCc3cccc(OC4CCCC4)c3)[C@@H](O)[C@H]2O)c(=O)n1 |  | inactive: 1.87%
COC(=O)c1ccc2c(=O)[nH]c(COC(=O)c3c(-c4ccccc4)noc3C)nc2c1 |  | inactive: 8.24%
Nc1c(Cl)ncnc1NCc1ccccc1 | inconclusive [cytotoxic, single point] | 
CS(=O)(=O)c1ccc2nc(NC(=O)c3ccco3)sc2c1 | inconclusive [cytotoxic, single point] | 
